# Values marked as one replicate rest on one cluster of the flow cell; about a third of the high ones do not repeat.
# Test system: ATP
# Experiment: switch fluorescence ratio, 500 uM ATP over buffer (Cy3 cluster intensity, sum of 5 cycles each) (fold (ratio)); higher = stronger signal-on switching upon ATP binding; sequences stand for … in TCGTCGGCAGCGTCAGATGTGTATAAGAGACAGTTTTTTTTTTTTTTTTTTTTTTTTT…TC
# Details: aptamer strand: ATP DNA aptamer (quencher-CACCTGGGGGAGTATTGCGGAGGAAGG + anchor), 100 nM annealed; ATP concentration: 500 uM; one replicate
# In short: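 Switching-strand clusters labelled with Cy3 on a modified Illumina MiSeq flow-cell were annealed to 100 nM quencher-labelled ATP aptamer, imaged in selection buffer, and re-imaged after 15 min with 500 uM ATP at 22 °C. This was done over five cycles with NaOH stripping and re-annealing in between. The fluorescence ratio is summed target-cycle over summed buffer-cycle Cy3 intensity per cluster, averaged per switch-domain sequence, excluding clusters outside 100-1000 RFU.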
# 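Note: ATP exposure 15 min at 22 °C before imaging.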
row,Sequence,switch fluorescence ratio
1,CTGTAAACAA,2.57
2,CTAAGTACGC,1.26
3,TCAACGAAAA,1.09
4,AACGCTGTGC,1.46
5,TTGGGCAGGT,1.03
6,TCCTATGATG,0.978
7,TGCGAGGTTT,0.994
8,GATTCGCCTA,1.02
9,AGTCAAGTGA,1.02
10,GAATATGCGT,0.95
11,CGTTTCCCCT,1.27
12,CCCTTTCGAT,1.05
13,GCATAGGGTG,0.988
14,GTCGTGGGAG,0.963
15,TAAGACACTT,1.04
16,CGAACCTGCA,1.96
17,CGGAGTGGGA,0.984
18,GCTCGGAGCA,1.06
19,GATTAAATGG,1.02
20,GGTGCTAGCT,0.999
21,ATGATTTTAT,0.997
22,GCGTTCGAAC,1.02
23,TCGCCAAACC,1.2
24,TCCTATTCA,1.02
25,AATCATTCGT,1.02
26,TTTAGAATGA,1.04

row,Sequence,switch fluorescence ratio
1,GAGCTTAGTT,1.02
2,ACTCGCGCGA,1.15
3,ATCCATGAC,1.04
4,TCCTAGTATA,1.03
5,ATCTTCACGT,1.02
6,GTGAACGG,0.988
7,TAATCATATC,0.953
8,TCCAATAAAA,0.995
9,CATTCGACTA,1.09
10,TGTTCAGAGC,0.978
11,GCTAGAGCGG,0.994
12,GCGTGACGG,1.03
13,TGTGGAACAA,1.07
14,TAGGCGGATC,1.06
15,CACTTCTGGG,0.995
16,TCTAGACGGA,1.04
17,CCCCATCGGC,1.07
18,TTATGCTTGA,1.01
19,AACTAATAGT,1.02
20,GAATAATGAC,1.04
21,AGCTTGACTT,1.06
22,TCGTTGTTTC,1.22
23,CGATGACAGG,1.34
24,GCTGGTGTCA,0.994
25,AATTTCGTCA,1.03
26,TATTTAATTG,0.965

row,Sequence,switch fluorescence ratio
1,TCTTTAGTA,0.99
2,CAAGGAGCTA,0.984
3,TCCACAATCT,1.96
4,AAGTGCCCAC,1.01
5,TTGCGCGGA,0.996
6,GACCTTCCTC,2.4
7,CCCGTTTAGC,1.1
8,TAGGAATAAT,0.962
9,AAACCCGATG,1.04
10,CCGGAATTGT,1.1
11,CCAGAAGGCC,1
12,AGATCACTC,1.05
13,ATGTAACGGA,0.994
14,TCGACCAAAA,1.09
15,GATGAGGGG,0.965
16,GTTAACGTCT,1.01
17,ACTCAAGA,1.18
18,CTATCTGTGG,0.968
19,GGTGATAAGG,1.01
20,ATTCTCTTCG,1.06
21,GGTGGTAGGT,0.997
22,AACCAGTATG,0.962
23,TTACACGACA,1.26
24,CTCACGATAA,1.45
25,GACCCGGGGT,0.925
26,AAGTCGTGTG,0.974

row,Sequence,switch fluorescence ratio
1,CGTGAGCTTC,1.11
2,GACTAGAGAT,0.954
3,AAGGAGTAAA,0.979
4,AGTGTATTCA,1.12
5,CTTGTGTATA,1
6,TACTCGCTAA,1.28
7,TTAATTGCAT,1.01
8,TGATTCTGGG,0.996
9,CGTTTCGTTC,1.03
10,GTGGGTCAGC,1.02
11,TGGGTCGCT,0.997
12,ACCGACCGAA,2.15
13,GGAAGTTGTG,0.964
14,CAAGCGAGCC,1.08
15,TGCTACGGTT,1.03
16,GAAGGCCATC,0.982
17,ACAGCATTTC,1.42
18,CGACGCGGAG,1.27
19,GCATACCCGT,1.06
20,GCAACGTGGC,1.03
21,CCCTTAATGG,1.03
22,TCCTAGGTGC,2.79
23,ACGGGGAAGC,1.01

# From the supplement of paper PMC10126150
